Data: the supplement of paper PMC7125110
± gives the standard error. For some assays here: Variants at the floor of the assay are shown more often than the library holds them.

B1: glmS ribozyme (parent)
chain: AUAAAAGCGCCAGAACUACAGAAAUGUAGUUGACGAGGAGGAGGUUUAUCGAAUUUUCGGCGGAUGCCUCCAAA

Key:
Conditions in all cases: with glucosamine-6-phosphate
glucosamine-6-phosphate [1] = variants of: B1; assay: self-cleavage kobs at 640 uM GlcN6P; higher = faster cleavage; RNA array
How it was run: (§1)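 Tiles of sequenced MiSeq chips were imaged over ~14 h at 37 °C. On them, barcoded ribozyme variants had been transcribed in situ by E. coli RNA polymerase and were tracked via a hybridised Cy3 probe while glucosamine-6-phosphate (40 μM to 10 mM) in HEPES/KCl/Mg(OAc)2 buffer flowed in. Per-tile medians, normalised to baseline and to non-cleaving reference variants, were fit to one- or two-exponential decays for kobs, and weighted Michaelis–Menten fits gave kcat and KM.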

glucosamine-6-phosphate [2] = variants of: B1; assay: self-cleavage kobs at 2500 uM GlcN6P; higher = faster cleavage; RNA array
How it was run: as §1

glucosamine-6-phosphate [3] = variants of: B1; assay: self-cleavage kobs at 40 uM GlcN6P; higher = faster cleavage; RNA array
How it was run: as §1

glucosamine-6-phosphate [4] = variants of: B1; assay: self-cleavage kobs at 160 uM GlcN6P; higher = faster cleavage; RNA array
How it was run: as §1

glucosamine-6-phosphate [5] = variants of: B1; assay: self-cleavage kobs at 10000 uM GlcN6P; higher = faster cleavage; RNA array
How it was run: as §1

Variant	self-cleavage kobs at 640 uM GlcN6P (glucosamine-6-phosphate [1]) [s⁻¹]	self-cleavage kobs at 2500 uM GlcN6P (glucosamine-6-phosphate [2]) [s⁻¹]	self-cleavage kobs at 40 uM GlcN6P (glucosamine-6-phosphate [3]) [s⁻¹]	self-cleavage kobs at 160 uM GlcN6P (glucosamine-6-phosphate [4]) [s⁻¹]	self-cleavage kobs at 10000 uM GlcN6P (glucosamine-6-phosphate [5]) [s⁻¹]
G7A G38C G41U U47C	< 1e-05	< 1e-05			
G66U C70U	0.000507 ± 4.8e-05		6.67e-05 ± 8e-06	0.000141 ± 1.7e-05	
U2A A6G G7C C8G G9C A12G G13A A14C U49G	< 1e-05				
A6U G13A G41C C67U U69C	< 1e-05	< 1e-05		< 1e-05	< 1e-05
A6U G43C	< 1e-05			< 1e-05	< 1e-05
A6C U69G	0.000265 ± 0.00011				
A6G G9U U31C U55C C70U	< 1e-05			< 1e-05	
G7A G35U G51C	< 1e-05				< 1e-05
A6U G35U C67A	< 1e-05	< 1e-05		< 1e-05	
G7A C10G U65C	< 1e-05				
A1U U2G A3G A5U A14C U69C	0.000257 ± 6e-05	0.000526 ± 0.00012		5.02e-05 ± 1.8e-05	
G7A C16G G32U U55A G63A C71A	< 1e-05				
G7C A42C U54A	< 1e-05	< 1e-05			
A6G G32C G63C	< 1e-05				
A6C G7A G29A G40C U54A C61A C68G	< 1e-05	< 1e-05			
A6G C11U C50U U57A	< 1e-05				
A6C G7C A15U	< 1e-05	< 1e-05		< 1e-05	
A6U G29U G63U	< 1e-05	< 1e-05			
A6G G35U G43C C71G	< 1e-05	< 1e-05		< 1e-05	

Variant	self-cleavage kobs at 640 uM GlcN6P (glucosamine-6-phosphate [1]) [s⁻¹]	self-cleavage kobs at 2500 uM GlcN6P (glucosamine-6-phosphate [2]) [s⁻¹]	self-cleavage kobs at 40 uM GlcN6P (glucosamine-6-phosphate [3]) [s⁻¹]	self-cleavage kobs at 160 uM GlcN6P (glucosamine-6-phosphate [4]) [s⁻¹]	self-cleavage kobs at 10000 uM GlcN6P (glucosamine-6-phosphate [5]) [s⁻¹]
G66U C68U	0.000116 ± 1.2e-05	0.000226 ± 4e-05	2.21e-05 ± 1e-05	3.82e-05 ± 1.3e-05	0.000311 ± 2.9e-05
G7A A14G G29U C70G	< 1e-05	< 1e-05			
A6G A14U G44A	< 1e-05	< 1e-05			
G7A A36G G43A	< 1e-05	< 1e-05			
A6G G35U G63A	< 1e-05	< 1e-05			
A6G C16G G38A	< 1e-05			< 1e-05	
A72C	0.00257 ± 0.00043	0.00362 ± 0.00077	0.000372 ± 7.3e-05		0.0121 ± 0.0021
G7A U30G A48U U54C G66U	< 1e-05				
A6G A36C C50G	0.000132 ± 3.4e-05				
G7A U31A A33G G44C U65A	< 1e-05	< 1e-05		< 1e-05	
A6C C8A A39U G41C U65G C71A	< 1e-05				
A6G G7A A12U U30C A33C C34U	< 1e-05				
A6G G59U A64C	< 1e-05	< 1e-05		< 1e-05	
A6G C11G C34U U45G	< 1e-05				
A6U G44U G66U	< 1e-05	< 1e-05			
G7A C8A U65C	< 1e-05	< 1e-05			
A6C A48G	< 1e-05	< 1e-05		< 1e-05	
G7A U65C	< 1e-05	< 1e-05		< 1e-05	< 1e-05
A6U G13C C71U	< 1e-05	< 1e-05		< 1e-05	

Variant	self-cleavage kobs at 640 uM GlcN6P (glucosamine-6-phosphate [1]) [s⁻¹]	self-cleavage kobs at 2500 uM GlcN6P (glucosamine-6-phosphate [2]) [s⁻¹]	self-cleavage kobs at 40 uM GlcN6P (glucosamine-6-phosphate [3]) [s⁻¹]	self-cleavage kobs at 160 uM GlcN6P (glucosamine-6-phosphate [4]) [s⁻¹]	self-cleavage kobs at 10000 uM GlcN6P (glucosamine-6-phosphate [5]) [s⁻¹]
A6G C11A U55G C68G	< 1e-05				
G7C C8U U45G	< 1e-05	< 1e-05			
A6C C8A U47A G63U	< 1e-05	< 1e-05			
A6C C11U G44U C68U C71U	< 1e-05			< 1e-05	
G7A A53U C61U	< 1e-05	< 1e-05			
A6G A36G G44U C61U	< 1e-05	< 1e-05		< 1e-05	
A6U G13C A42G C67A	< 1e-05				
A6U C10U G35C A48U G63A	< 1e-05				
A6G C10U C11A G32A G43U	< 1e-05				
A6G G7A C10G U30C A39G	< 1e-05	< 1e-05			
A6G G35U C61A G63C C67G	< 1e-05				
G7A A12U G60U C67U	< 1e-05			< 1e-05	
G7A A39U	< 1e-05			< 1e-05	
A6U U31C G35U A42C C68A C70U	< 1e-05				
G7C A53U	< 1e-05	< 1e-05		< 1e-05	< 1e-05
A6U G21U A39G C50U	< 1e-05				
A6G C11G G13C	< 1e-05			< 1e-05	
G7A C10U U30G	< 1e-05				
G7C A33U U45C	< 1e-05				
